Experimental data reported in patent US20020155443A1, “Metal binding DNA interactive compounds” (priority 2000, published 2002).

System: Form I DNA (plasmid pGAD424; Li.DNA, Na.DNA, K.DNA)
Conditions: for relative efficiency of cleavage of Li.DNA, Na.DNA and K.DNA: pH 7.4 phosphate, 20 mM alkali metal ion
[1] = Na.DNA and Li.DNA, 37° C., four days

Row | Structure (SMILES) | relative efficiency of cleavage of Li.DNA, Na.DNA and K.DNA (in words) | other results
1 | O=C(OCC1COCCOCCOCCOCCO1)c1ccc(CS(=O)(=O)CC#CCO)cc1 (stereo not shown) [Compound 3.2] | more potent cleavers of Na.DNA and K.DNA than Li.DNA | 
2 | O=S1(=O)CC#CCOCCOCCOCCOCCOCCOCC#CC1 [Compound 2.47] | cleaves Na.DNA and K.DNA similarly and with much greater efficiency than it cleaves Li.DNA | 
3 | O=C(OCC1COCCOCCOCCOCCO1)c1cccc(CS(=O)(=O)CC#CCO)c1 (stereo not shown) [Compound 3.1] | more potent cleavers of Na.DNA and K.DNA than Li.DNA | 
4 | O=S1(=O)CC#CCOCCOCCOCCOCCOCCOCCOCC#CC1 [Compound 2.48] | cleaves Na.DNA to a slightly greater extent than K.DNA | cleavage of Li.DNA (Li.DNA, in words): cleaved poorly
5 | O=S1(=O)CC#CCOCCOCCOCCOCC#CC1 [Compound 2.12] | cleaves K.DNA a little more efficiently than it cleaves Li.DNA | 
6 | O=S1(=O)CC#CCOCCOCCOCCOCCOCC#CC1 [Compound 2.46] | equipotent at cleaving Li.DNA and Na.DNA | cleavage of K.DNA (K.DNA, in words): efficient cleavage
7 | C1#CCc2cccc3c2-c2c(cccc2OCCOCCOCCOCCO3)CC#C/C=C\1 [Compound 5.3] |  | Form I DNA remaining [1]: no Form I DNA remained; extent of DNA cleavage [1]: extensive
